Experimental data as given in the supplement of paper PMC10369915.
Some of the results follow. Rule as the data show it: active = 3.2 or more and inactive = the rest. Most of these values are background signal.

What follows are binders tested against SHP2 C-SH2 domain E139D (assay: enrichment score (SH2-bound / input frequency) (ratio); bacterial display of known human phosphotyrosine sites (pTyr-Var adds point mutants) read by sequencing; higher = stronger binding; tyrosines were phosphorylated by kinases first). Details: peptide library: pTyr-Var.
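Also: displayed peptides selected on beads carrying the immobilized SH2 domain, with library peptides lacking any tyrosine serving as negative controls.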

Enrichment score, inactive:
SVICTYSPALN [TP53_Y126_T123I] 0.682
SVNCTYSPALN [TP53_Y126_T123N] 0.768
SVTCTCSPALN [TP53_Y126_Y126C] 0.913
SVTCTHSPALN [TP53_Y126_Y126H] 0.888
SVTCTNSPALN [TP53_Y126_Y126N] 0.816
SVTCTSSPALN [TP53_Y126_Y126S] 0.647
SVVVPYAPPEV [TP53_Y220_E221A] 0.931
SVVVPYGPPEV [TP53_Y220_E221G] 0.773
SVVVPYEPPDV [TP53_Y220_E224D] 0.78
SVVVPYEPPVV [TP53_Y220_E224V] 0.827
SVVVRYEPPEV [TP53_Y220_P219R] 0.906
SVVVTYEPPEV [TP53_Y220_P219T] 0.971
SVVVPYETPEV [TP53_Y220_P222T] 0.923
SVVVPYEPAEV [TP53_Y220_P223A] 0.672
SVVVPYEPTEV [TP53_Y220_P223T] 0.785
KVVVPYEPPEV [TP53_Y220_S215K] 0.99
NVVVPYEPPEV [TP53_Y220_S215N] 0.826
RVVVPYEPPEV [TP53_Y220_S215R] 0.848

Each binder was assayed against SHP2 C-SH2 domain wild-type in the same assay as above. Details: peptide library: pTyr-Var.

Enrichment score, inactive:
SVICTYSPALN [TP53_Y126_T123I] 1.07
SVNCTYSPALN [TP53_Y126_T123N] 1.15
SVTCTCSPALN [TP53_Y126_Y126C] 1.15
SVTCTHSPALN [TP53_Y126_Y126H] 1.01
SVTCTNSPALN [TP53_Y126_Y126N] 0.969
SVTCTSSPALN [TP53_Y126_Y126S] 1.03
SVVVPYAPPEV [TP53_Y220_E221A] 0.803
SVVVPYGPPEV [TP53_Y220_E221G] 0.669
SVVVPYEPPDV [TP53_Y220_E224D] 0.857
SVVVPYEPPVV [TP53_Y220_E224V] 0.693
SVVVRYEPPEV [TP53_Y220_P219R] 0.841
SVVVTYEPPEV [TP53_Y220_P219T] 1.1
SVVVPYETPEV [TP53_Y220_P222T] 0.796
SVVVPYEPAEV [TP53_Y220_P223A] 0.639
SVVVPYEPTEV [TP53_Y220_P223T] 1.05
KVVVPYEPPEV [TP53_Y220_S215K] 0.765
NVVVPYEPPEV [TP53_Y220_S215N] 0.812
RVVVPYEPPEV [TP53_Y220_S215R] 0.874

Each binder was assayed against SHP2 N-SH2 domain L43F in the same assay as above. Details: peptide library: pTyr-Var.

Enrichment score, inactive:
SVICTYSPALN [TP53_Y126_T123I] 0.848
SVNCTYSPALN [TP53_Y126_T123N] 0.692
SVTCTCSPALN [TP53_Y126_Y126C] 1.04
SVTCTHSPALN [TP53_Y126_Y126H] 0.778
SVTCTNSPALN [TP53_Y126_Y126N] 0.758
SVTCTSSPALN [TP53_Y126_Y126S] 0.735
SVVVPYAPPEV [TP53_Y220_E221A] 0.972
SVVVPYGPPEV [TP53_Y220_E221G] 0.667
SVVVPYEPPDV [TP53_Y220_E224D] 0.792
SVVVPYEPPVV [TP53_Y220_E224V] 0.868
SVVVRYEPPEV [TP53_Y220_P219R] 0.949
SVVVTYEPPEV [TP53_Y220_P219T] 1.05
SVVVPYETPEV [TP53_Y220_P222T] 0.855
SVVVPYEPAEV [TP53_Y220_P223A] 0.755
SVVVPYEPTEV [TP53_Y220_P223T] 0.993
KVVVPYEPPEV [TP53_Y220_S215K] 0.878
NVVVPYEPPEV [TP53_Y220_S215N] 0.824
RVVVPYEPPEV [TP53_Y220_S215R] 0.775

Each binder was assayed against SHP2 N-SH2 domain T42A in the same assay as above. Details: peptide library: pTyr-Var.

Enrichment score, inactive:
SVICTYSPALN [TP53_Y126_T123I] 0.581
SVNCTYSPALN [TP53_Y126_T123N] 0.635
SVTCTCSPALN [TP53_Y126_Y126C] 0.825
SVTCTHSPALN [TP53_Y126_Y126H] 0.651
SVTCTNSPALN [TP53_Y126_Y126N] 0.548
SVTCTSSPALN [TP53_Y126_Y126S] 0.67
SVVVPYAPPEV [TP53_Y220_E221A] 0.659
SVVVPYGPPEV [TP53_Y220_E221G] 0.699
SVVVPYEPPDV [TP53_Y220_E224D] 0.662
SVVVPYEPPVV [TP53_Y220_E224V] 0.795
SVVVRYEPPEV [TP53_Y220_P219R] 0.91
SVVVTYEPPEV [TP53_Y220_P219T] 0.94
SVVVPYETPEV [TP53_Y220_P222T] 0.77
SVVVPYEPAEV [TP53_Y220_P223A] 0.793
SVVVPYEPTEV [TP53_Y220_P223T] 1.01
KVVVPYEPPEV [TP53_Y220_S215K] 0.604
NVVVPYEPPEV [TP53_Y220_S215N] 0.837
RVVVPYEPPEV [TP53_Y220_S215R] 0.864

What follows are binders tested against SHP2 N-SH2 domain T52S in the same assay as above. Details: peptide library: pTyr-Var.

Enrichment score, inactive:
SVICTYSPALN [TP53_Y126_T123I] 0.749
SVNCTYSPALN [TP53_Y126_T123N] 0.811
SVTCTCSPALN [TP53_Y126_Y126C] 1.16
SVTCTHSPALN [TP53_Y126_Y126H] 0.715
SVTCTNSPALN [TP53_Y126_Y126N] 0.85
SVTCTSSPALN [TP53_Y126_Y126S] 0.596
SVVVPYAPPEV [TP53_Y220_E221A] 0.798
SVVVPYGPPEV [TP53_Y220_E221G] 0.77
SVVVPYEPPDV [TP53_Y220_E224D] 0.771
SVVVPYEPPVV [TP53_Y220_E224V] 0.857
SVVVRYEPPEV [TP53_Y220_P219R] 1.06
SVVVTYEPPEV [TP53_Y220_P219T] 0.919
SVVVPYETPEV [TP53_Y220_P222T] 0.84
SVVVPYEPAEV [TP53_Y220_P223A] 0.71
SVVVPYEPTEV [TP53_Y220_P223T] 1.24
KVVVPYEPPEV [TP53_Y220_S215K] 1.22
NVVVPYEPPEV [TP53_Y220_S215N] 0.838
RVVVPYEPPEV [TP53_Y220_S215R] 0.863

The binders below were run against SHP2 N-SH2 domain wild-type in the same assay as above. Details: peptide library: pTyr-Var.

Enrichment score, inactive:
SVICTYSPALN [TP53_Y126_T123I] 0.922
SVNCTYSPALN [TP53_Y126_T123N] 1.08
SVTCTCSPALN [TP53_Y126_Y126C] 1.43
SVTCTHSPALN [TP53_Y126_Y126H] 1.12
SVTCTNSPALN [TP53_Y126_Y126N] 1.28
SVTCTSSPALN [TP53_Y126_Y126S] 1.28
SVVVPYAPPEV [TP53_Y220_E221A] 0.82
SVVVPYGPPEV [TP53_Y220_E221G] 0.745
SVVVPYEPPDV [TP53_Y220_E224D] 0.95
SVVVPYEPPVV [TP53_Y220_E224V] 0.931
SVVVRYEPPEV [TP53_Y220_P219R] 0.909
SVVVTYEPPEV [TP53_Y220_P219T] 0.87
SVVVPYETPEV [TP53_Y220_P222T] 1.07
SVVVPYEPAEV [TP53_Y220_P223A] 0.879
SVVVPYEPTEV [TP53_Y220_P223T] 1.02
KVVVPYEPPEV [TP53_Y220_S215K] 1.12
NVVVPYEPPEV [TP53_Y220_S215N] 0.901
RVVVPYEPPEV [TP53_Y220_S215R] 0.84
